Results are given in words; binding and its absence hold for the method and conditions named. Binding seen in cells or lysates may run through a third protein. Some binding calls cover weakened binding; strength is not graded here.
Target: BUBR1 (endogenous, HEK-293T) (human (endogenous in HEK-293T)) (UniProt O60566)
Assay: co-IP; HEK-293T cells cotransfected with truncated mutants of progerin-C and HA-progerin; progerin IP with the anti-HA antibody

The chains behind the UniProt entries cited, without tags or fusion partners.
UniProt O60566: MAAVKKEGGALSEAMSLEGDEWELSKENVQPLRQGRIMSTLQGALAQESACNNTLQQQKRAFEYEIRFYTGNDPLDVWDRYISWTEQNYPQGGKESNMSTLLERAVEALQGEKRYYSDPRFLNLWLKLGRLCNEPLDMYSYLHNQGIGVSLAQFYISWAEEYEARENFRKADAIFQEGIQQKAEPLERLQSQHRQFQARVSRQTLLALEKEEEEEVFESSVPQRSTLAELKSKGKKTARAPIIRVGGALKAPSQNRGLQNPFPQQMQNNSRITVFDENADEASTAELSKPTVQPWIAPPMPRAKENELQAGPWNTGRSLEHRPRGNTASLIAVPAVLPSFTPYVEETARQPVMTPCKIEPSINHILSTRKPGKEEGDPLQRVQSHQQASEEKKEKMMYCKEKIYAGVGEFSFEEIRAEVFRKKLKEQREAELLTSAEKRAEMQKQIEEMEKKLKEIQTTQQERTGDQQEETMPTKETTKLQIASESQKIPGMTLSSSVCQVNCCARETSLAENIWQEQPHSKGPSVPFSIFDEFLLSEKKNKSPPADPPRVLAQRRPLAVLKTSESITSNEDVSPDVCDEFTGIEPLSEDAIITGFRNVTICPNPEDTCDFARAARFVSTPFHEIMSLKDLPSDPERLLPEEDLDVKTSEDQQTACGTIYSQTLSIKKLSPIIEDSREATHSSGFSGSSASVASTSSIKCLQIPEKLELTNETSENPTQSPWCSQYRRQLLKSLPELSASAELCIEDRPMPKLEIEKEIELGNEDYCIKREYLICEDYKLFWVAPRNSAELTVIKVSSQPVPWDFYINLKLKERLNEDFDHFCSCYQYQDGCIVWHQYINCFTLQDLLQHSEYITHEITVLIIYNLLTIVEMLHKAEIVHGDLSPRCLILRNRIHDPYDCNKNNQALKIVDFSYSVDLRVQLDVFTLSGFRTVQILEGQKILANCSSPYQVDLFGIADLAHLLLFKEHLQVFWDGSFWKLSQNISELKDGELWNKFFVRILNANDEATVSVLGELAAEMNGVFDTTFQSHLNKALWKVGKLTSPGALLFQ

binding: binds
Binder: YNLRSRTVLCGTCGQPADKASASGSGAQSPQNCSIM (domain or fragment) [progerin-C36 (aa residues 579–614)]

— PMC10154249, “Unique progerin C-terminal peptide ameliorates Hutchinson–Gilford progeria syndrome phenotype by rescuing BUBR1” (Nature Aging, 2023)
